The text below walks through data of the antibiotic and cytotoxicity screens of Wong et al. (2023).

Structures are written as SMILES. Some of the results follow.

One assay concerns HSkMC (human skeletal muscle cells). Description: cytotoxicity call (relative viability < 0.9). As to conditions: 10 µM.
In the case of `C[C@@H]1CN([C@H](C)CO)S(=O)(=O)c2ccc(C#Cc3ccc(F)cc3)cc2O[C@H]1CN(C)S(=O)(=O)c1cn(C)cn1`, the cytotoxicity call is “inactive”.

Turning to `CCNC(=O)C[C@@H]1CC[C@@H]2[C@@H](COc3ccc(NS(=O)(=O)c4ccccc4C)cc3C(=O)N2C)O1`, the cytotoxicity call was “inactive”.

In the case of `C[C@@H]1CCCCO[C@H](CN(C)C(=O)Nc2ccc(C(F)(F)F)cc2)[C@@H](C)CN([C@@H](C)CO)C(=O)c2cc(NC(=O)Cc3ccccc3)ccc2O1`, the cytotoxicity call is “inactive”.

In the case of `C[C@H]1CN([C@@H](C)CO)C(=O)Cc2cc(NC(=O)CCN3CCOCC3)ccc2O[C@@H]1CN(C)C(=O)Nc1ccc(F)cc1`, the cytotoxicity call is “inactive”.

Consider `N[C@@H]1CCCN(c2c(/C=C3\SC(=O)NC3=O)cccc2-c2ccccc2)C1`, for which the cytotoxicity call is “inactive”.

For `NCC1CCN(S(=O)(=O)C2CC2)CC1`, the cytotoxicity call is “inactive”.

On to `C1CNCCN1`, for which the cytotoxicity call is “inactive”.

On to `COc1ccc(S(=O)(=O)N(C)C[C@H]2Oc3c(NC(=O)C4CCOCC4)cccc3C(=O)N([C@H](C)CO)C[C@H]2C)cc1`, for which the cytotoxicity call was “inactive”.

For `C[C@H](CO)N1C[C@H](C)[C@@H](CN(C)Cc2ccc(Cl)c(Cl)c2)Oc2ccc(NC(=O)Nc3ccc(C(F)(F)F)cc3)cc2C1=O`, the cytotoxicity call is “active”.

Take `COc1ccc2occ(C(C)=O)c2c1`: the cytotoxicity call is “inactive”.

The next assay relates to HepG2. Description: cytotoxicity call (relative viability < 0.9). As to conditions: 10 µM.
In the case of `Cc1ccc(S(=O)(=O)Nc2ccc3c(c2)CC(=O)N([C@@H](C)CO)C[C@@H](C)[C@H](CN(C)Cc2ccc(C(F)(F)F)cc2)O3)cc1`, the cytotoxicity call was “inactive”.

For the compound `C[C@H]1CN([C@@H](C)CO)C(=O)Cc2cc(NS(=O)(=O)c3ccccc3)ccc2O[C@H]1CN(C)Cc1ccc2c(c1)OCO2`, the cytotoxicity call was “inactive”.

For the compound `Cc1noc(C)c1NC(=O)N(C)C[C@@H]1OCCCC[C@@H](C)Oc2ccc(NC(=O)Nc3ccc4c(c3)OCO4)cc2C(=O)N([C@@H](C)CO)C[C@H]1C`, the cytotoxicity call was “inactive”.

Turning to `C[C@@H]1CCCCO[C@H](CN(C)C(=O)CCC(F)(F)F)[C@H](C)CN([C@H](C)CO)C(=O)c2cc(NS(=O)(=O)c3cccs3)ccc2O1`, the cytotoxicity call was “inactive”.

Consider `C[C@@H]1CN([C@@H](C)CO)C(=O)c2cc(NC(=O)CCN3CCOCC3)ccc2O[C@H]1CN(C)C(=O)NC1CCCCC1`, for which the cytotoxicity call was “inactive”.

In the case of `C[C@H]1CN([C@@H](C)CO)C(=O)c2cc(-c3cccc(C(=O)N(C)C)c3)cnc2O[C@H]1CN(C)S(=O)(=O)c1cccc(F)c1`, the cytotoxicity call is “inactive”.

On to `CCC(=O)NC[C@H](Cc1ccc(OCCc2nc(-c3ccccc3)oc2C)cc1)N/C(C)=C\C(=O)c1ccc(C(F)(F)F)cc1`, for which the cytotoxicity call is “inactive”.

`C[C@@H]1CN([C@@H](C)CO)C(=O)CCCn2cc(nn2)CO[C@H]1CN(C)Cc1cccc2c1OCCCO2`: the cytotoxicity call was “inactive”.

Regarding `Cc1noc(C)c1NC(=O)Nc1ccc2c(c1)CC(=O)N([C@@H](C)CO)C[C@@H](C)[C@H](CN(C)CC1CC1)O2`, the cytotoxicity call was “inactive”.

For `O=C(C[C@@H]1CC[C@@H]2[C@H](COC[C@H](O)CN2C(=O)CCN2CCCCC2)O1)NCCCN1CCOCC1`, the cytotoxicity call is “inactive”.

As for `O=C(C[C@@H]1CC[C@H](NS(=O)(=O)c2ccccc2F)[C@H](CO)O1)NCCCN1CCOCC1`, the cytotoxicity call was “inactive”.

As for `CC(OC1OCCN(C(C)c2nc(=O)[nH][nH]2)C1c1ccc(F)cc1)c1cc(C(F)(F)F)cc(C(F)(F)F)c1` (stereo not given), the cytotoxicity call is “active”.

As for `O=C(C[C@@H]1CC[C@H]2[C@@H](COC[C@@H](O)CN2S(=O)(=O)c2ccccc2)O1)N[C@@H]1CCN(Cc2ccccc2)C1`, the cytotoxicity call was “inactive”.

In the case of `C[C@H](CO)N1C[C@H](C)[C@H](CN(C)C(=O)CN(C)C)Oc2ncc(C#CC(C)(C)O)cc2C1=O`, the cytotoxicity call was “inactive”.

`COC(=O)C[C@H]1CC[C@H]2[C@@H](COC[C@H](O)CN2S(=O)(=O)c2cn(C)cn2)O1`: the cytotoxicity call is “inactive”.

Consider `COc1ccc(S(=O)(=O)Nc2cccc3c2O[C@H](CN(C)S(=O)(=O)c2ccccc2)[C@@H](C)CN([C@H](C)CO)C3=O)cc1`, for which the cytotoxicity call is “inactive”.

Regarding `C[C@@H]1CN([C@H](C)CO)C(=O)c2cc(NC(=O)C3CCOCC3)ccc2O[C@H]1CN(C)S(=O)(=O)c1ccc(Cl)cc1`, the cytotoxicity call is “inactive”.

`CC(C)(C)[S@](=O)N1Cc2cc(C(=O)NCc3ccc4c(c3)OCO4)nc(-c3cccc(-c4cccnc4)c3)c2[C@@H]1CCO`: the cytotoxicity call is “inactive”.

On to `C[C@H]1CN([C@@H](C)CO)C(=O)c2cccc(NS(=O)(=O)c3ccccc3)c2O[C@@H]1CN(C)S(=O)(=O)c1ccc(F)cc1`, for which the cytotoxicity call was “inactive”.

Regarding `O=C(c1ccccc1Cl)n1c2ccccc2c2ccccc21`, the cytotoxicity call is “active”.

Take `O=C(CN1CCOCC1)NCC[C@H]1CC[C@H](NC(=O)Cc2ccccn2)[C@H](CO)O1`: the cytotoxicity call was “inactive”.

In the case of `C[C@@H]1CCCCO[C@H](CN(C)C(=O)Nc2ccccc2)[C@@H](C)CN([C@H](C)CO)C(=O)c2cc(NS(=O)(=O)c3ccc(Cl)cc3)ccc2O1`, the cytotoxicity call was “inactive”.

For `CC(C)[C@@H](CO)N1C(=O)[C@@H]2[C@H]3C(=O)OCCC/C=C\[C@H]3O[C@]23C=CCN(c2ccc4ccccc4c2)C(=O)[C@@H]13`, the cytotoxicity call is “inactive”.

Regarding `O=[N+]([O-])c1ccc(NCCO)c(OCCO)c1`, the cytotoxicity call is “inactive”.

Take `N#C[C@@H]1C(=O)NC(=O)[C@@H](C#N)C12CCCC2`: the cytotoxicity call was “inactive”.

With `CS(=O)(=O)[C@H]1CCNC1`, the cytotoxicity call is “inactive”.

Consider `O=C(C[C@@H]1CC[C@@H]2[C@H](COC[C@@H](O)CN2C(=O)Nc2cc(Cl)cc(Cl)c2)O1)N1CCOCC1`, for which the cytotoxicity call is “inactive”.

With `C[C@H](CO)N1C[C@H](C)[C@H](CN(C)S(=O)(=O)c2ccccc2)OCCCC[C@H](C)Oc2ccc(NS(=O)(=O)c3cn(C)cn3)cc2C1=O`, the cytotoxicity call is “inactive”.

Regarding `C[C@@H]1CN([C@@H](C)CO)C(=O)c2cc(NS(=O)(=O)c3cn(C)cn3)ccc2O[C@@H]1CN(C)CC1CCCCC1`, the cytotoxicity call was “inactive”.

On to `CC(C)NC(=O)N(C)C[C@H]1Oc2ccc(NS(=O)(=O)c3cccs3)cc2C(=O)N([C@H](C)CO)C[C@H]1C`, for which the cytotoxicity call is “inactive”.

On to `C[C@@H]1CN([C@H](C)CO)S(=O)(=O)c2ccc(C#Cc3ccc(F)cc3)cc2O[C@H]1CN(C)S(=O)(=O)c1cn(C)cn1`, for which the cytotoxicity call was “inactive”.

Turning to `CCNC(=O)C[C@@H]1CC[C@@H]2[C@@H](COc3ccc(NS(=O)(=O)c4ccccc4C)cc3C(=O)N2C)O1`, the cytotoxicity call is “inactive”.

Consider `C[C@@H]1CCCCO[C@H](CN(C)C(=O)Nc2ccc(C(F)(F)F)cc2)[C@@H](C)CN([C@@H](C)CO)C(=O)c2cc(NC(=O)Cc3ccccc3)ccc2O1`, for which the cytotoxicity call was “inactive”.

Turning to `C[C@H]1CN([C@@H](C)CO)C(=O)Cc2cc(NC(=O)CCN3CCOCC3)ccc2O[C@@H]1CN(C)C(=O)Nc1ccc(F)cc1`, the cytotoxicity call is “inactive”.

Take `N[C@@H]1CCCN(c2c(/C=C3\SC(=O)NC3=O)cccc2-c2ccccc2)C1`: the cytotoxicity call is “inactive”.

Consider `NCC1CCN(S(=O)(=O)C2CC2)CC1`, for which the cytotoxicity call is “inactive”.

In the case of `C1CNCCN1`, the cytotoxicity call was “inactive”.

In the case of `COc1ccc(S(=O)(=O)N(C)C[C@H]2Oc3c(NC(=O)C4CCOCC4)cccc3C(=O)N([C@H](C)CO)C[C@H]2C)cc1`, the cytotoxicity call is “inactive”.

For the compound `C[C@H](CO)N1C[C@H](C)[C@@H](CN(C)Cc2ccc(Cl)c(Cl)c2)Oc2ccc(NC(=O)Nc3ccc(C(F)(F)F)cc3)cc2C1=O`, the cytotoxicity call is “active”.

As for `COc1ccc2occ(C(C)=O)c2c1`, the cytotoxicity call was “inactive”.
